# From the supplement of paper PMC8728848
# The other results are listed elsewhere or left out.
# B1: PkBDPgamma (Plasmodium knowlesi) (protein)
# chain: SAINQIFLQNNVMDKCNDKRKRGERDWDCPTEKDVCIPDRRYQLCMMEITNLVDTDTHFHSDIIFRKSYSRRRLIYDVGGRGDLLLKKYNNVYSEDLCKDIKWSLQDFGDIIMGTDMEGIGYSLVVQNNLRSIFGTGTSAELDRKKWWNDHKKDIWKAMILSVKEKNRYSAWNCKEDVQIKVEPQIYRWIREWGRDYMSEFREQRRKLNEKCEDKLYYSTMLICTLPPCNNACKSYDEWITGKKKQWDVLSTKFSSVKKAQKIETENIARAYDILKQELNGFNEVTFENEINKRDKLYNYFCVCIVQEARKNTQENVKNVGSGVESKAPSSNPINEAVKSSSGEGKVQEDSAHRSVNEGEGKSSTNEADPGSQPGAAASGGGSGGGTGGGVDLAPQMLRELQETNAALQDVRELLRQQVKEITFLKNTVMECDACGGPLDRNLPPLAPLGPTGGWSHPQFEK
# Assays:
# Experiment in all cases: glycan array binding signal (z-score within array); higher = stronger binding
# Details in all cases: glycan notation: IUPAC condensed, linker removed
# Gal(a1-3)GalNAc = molecular target: Gal(a1-3)GalNAc
# How it was run: (§1)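 The Consortium for Functional Glycomics database supplied 3228 glycan arrays, of which those lacking an available protein sequence were dropped. The binding signal, a within-array Z-score, was averaged across arrays of the same protein sequence and across linkers. Negative scores can be read as non-binding.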
# [1] = molecular target: Gal(a1-3)[Gal(a1-4)]Gal(b1-4)GlcNAc
# How it was run: as §1
# [2] = molecular target: Gal(a1-4)Gal(b1-3)GlcNAc(b1-2)Man(a1-3)[Gal(a1-4)Gal(b1-3)GlcNAc(b1-2)Man(a1-6)]Man(b1-4)GlcNAc(b1-4)GlcNAc
# How it was run: as §1
# Gal(a1-4)Gal(b1-4)Glc = molecular target: Gal(a1-4)Gal(b1-4)Glc
# How it was run: as §1
# Gal(a1-4)Gal(b1-4)GlcNAc = molecular target: Gal(a1-4)Gal(b1-4)GlcNAc
# How it was run: as §1
# [3] = molecular target: Gal(a1-4)Gal(b1-4)GlcNAc(b1-2)Man(a1-3)[Gal(a1-4)Gal(b1-4)GlcNAc(b1-2)Man(a1-6)]Man(b1-4)GlcNAc(b1-4)GlcNAc
# How it was run: as §1
# [4] = molecular target: Gal(a1-4)Gal(b1-4)GlcNAc(b1-3)Gal(b1-4)Glc
# How it was run: as §1
# Gal(a1-4)GlcNAc = molecular target: Gal(a1-4)GlcNAc
# How it was run: as §1
# Gal(a1-6)Glc = molecular target: Gal(a1-6)Glc
# How it was run: as §1
# Gal(b1-2)Gal = molecular target: Gal(b1-2)Gal
# How it was run: as §1
# Gal(b1-3)Gal = molecular target: Gal(b1-3)Gal
# How it was run: as §1
# Gal(b1-3)Gal(b1-4)GlcNAc = molecular target: Gal(b1-3)Gal(b1-4)GlcNAc
# How it was run: as §1
# Gal(b1-3)GalNAc = molecular target: Gal(b1-3)GalNAc
# How it was run: as §1
# [5] = molecular target: Gal(b1-3)GalNAc(a1-3)[Fuc(a1-2)]Gal(b1-4)Glc
# How it was run: as §1
# [6] = molecular target: Gal(b1-3)GalNAc(a1-3)[Fuc(a1-2)]Gal(b1-4)GlcNAc
# How it was run: as §1
# Gal(b1-3)GalNAc(b1-3)Gal = molecular target: Gal(b1-3)GalNAc(b1-3)Gal
# How it was run: as §1
# [7] = molecular target: Gal(b1-3)GalNAc(b1-3)Gal(a1-4)Gal(b1-4)Glc
# How it was run: as §1
# [8] = molecular target: Gal(b1-3)GalNAc(b1-4)Gal(b1-4)Glc
# How it was run: as §1
# [9] = molecular target: Gal(b1-3)GalNAc(b1-4)[Neu5Ac(a2-3)]Gal(b1-4)Glc
# How it was run: as §1
# Gal(b1-3)GlcNAc = molecular target: Gal(b1-3)GlcNAc
# How it was run: as §1
# [10] = molecular target: Gal(b1-3)GlcNAc(a1-3)Gal(b1-4)GlcNAc
# How it was run: as §1
# [11] = molecular target: Gal(b1-3)GlcNAc(a1-6)Gal(b1-4)GlcNAc
# How it was run: as §1
# Gal(b1-3)GlcNAc(b1-2)Man = molecular target: Gal(b1-3)GlcNAc(b1-2)Man
# How it was run: as §1
# [12] = molecular target: Gal(b1-3)GlcNAc(b1-2)Man(a1-3)[Gal(b1-3)GlcNAc(b1-2)Man(a1-6)]Man(b1-4)GlcNAc(b1-4)GlcNAc
# How it was run: as §1
# [13] = molecular target: Gal(b1-3)GlcNAc(b1-2)Man(a1-3)[Gal(b1-3)GlcNAc(b1-2)Man(a1-6)]Man(b1-4)GlcNAc(b1-4)[Fuc(a1-6)]GlcNAc
# How it was run: as §1
# [14] = molecular target: Gal(b1-3)GlcNAc(b1-2)Man(a1-3)[GlcNAc(b1-4)][Gal(b1-3)GlcNAc(b1-2)Man(a1-6)]Man(b1-4)GlcNAc(b1-4)GlcNAc
# How it was run: as §1
# [15] = molecular target: Gal(b1-3)GlcNAc(b1-2)[Gal(b1-3)GlcNAc(b1-6)]Man(a1-6)[Gal(b1-3)GlcNAc(b1-2)Man(a1-3)]Man(b1-4)GlcNAc(b1-4)GlcNAc
# How it was run: as §1
# [16] = molecular target: Gal(b1-3)GlcNAc(b1-3)Gal(b1-3)GlcNAc
# How it was run: as §1
# [17] = molecular target: Gal(b1-3)GlcNAc(b1-3)Gal(b1-4)Glc
# How it was run: as §1
# [18] = molecular target: Gal(b1-3)GlcNAc(b1-3)Gal(b1-4)GlcNAc
# How it was run: as §1
# [19] = molecular target: Gal(b1-3)GlcNAc(b1-3)Gal(b1-4)GlcNAc(b1-2)Man(a1-3)[Gal(b1-3)GlcNAc(b1-3)Gal(b1-4)GlcNAc(b1-2)Man(a1-6)]Man(b1-4)GlcNAc(b1-4)GlcNAc
# How it was run: as §1
# [20] = molecular target: Gal(b1-3)GlcNAc(b1-3)Gal(b1-4)GlcNAc(b1-2)[Gal(b1-3)GlcNAc(b1-3)Gal(b1-4)GlcNAc(b1-6)]Man(a1-6)[Gal(b1-3)GlcNAc(b1-3)Gal(b1-4)GlcNAc(b1-2)Man(a1-3)]Man(b1-4)GlcNAc(b1-4)[Fuc(a1-6)]GlcNAc
# How it was run: as §1
# [21] = molecular target: Gal(b1-3)GlcNAc(b1-3)Gal(b1-4)GlcNAc(b1-3)Gal(b1-4)GlcNAc(b1-2)[Gal(b1-3)GlcNAc(b1-3)Gal(b1-4)GlcNAc(b1-3)Gal(b1-4)GlcNAc(b1-6)]Man(a1-6)[Gal(b1-3)GlcNAc(b1-3)Gal(b1-4)GlcNAc(b1-3)Gal(b1-4)GlcNAc(b1-2)Man(a1-3)]Man(b1-4)GlcNAc(b1-4)[Fuc(a1-6)]GlcNAc
# How it was run: as §1
# [22] = molecular target: Gal(b1-3)GlcNAc(b1-3)Gal(b1-4)GlcNAc(b1-6)[Gal(b1-3)GlcNAc(b1-3)]Gal(b1-4)Glc
# How it was run: as §1
# [23] = molecular target: Gal(b1-3)GlcNAc(b1-3)Gal(b1-4)[Fuc(a1-3)]GlcNAc
# How it was run: as §1
# [24] = molecular target: Gal(b1-3)GlcNAc(b1-3)Gal(b1-4)[Fuc(a1-3)]GlcNAc(b1-6)[Gal(b1-3)GlcNAc(b1-3)]Gal(b1-4)Glc
# How it was run: as §1
# [25] = molecular target: Gal(b1-3)GlcNAc(b1-3)GalNAc
# How it was run: as §1
# [26] = molecular target: Gal(b1-3)GlcNAc(b1-6)Gal(b1-4)GlcNAc
# How it was run: as §1
binder,measurement,setting,value
B1,glycan array binding signal (z-score),Gal(a1-3)GalNAc,-0.186
same,glycan array binding signal (z-score),[1],-0.071
same,glycan array binding signal (z-score),[2],-0.302
same,glycan array binding signal (z-score),Gal(a1-4)Gal(b1-4)Glc,-0.246
same,glycan array binding signal (z-score),Gal(a1-4)Gal(b1-4)GlcNAc,0.478
same,glycan array binding signal (z-score),[3],0.474
same,glycan array binding signal (z-score),[4],-0.346
same,glycan array binding signal (z-score),Gal(a1-4)GlcNAc,-0.303
same,glycan array binding signal (z-score),Gal(a1-6)Glc,-0.561
same,glycan array binding signal (z-score),Gal(b1-2)Gal,-0.181
same,glycan array binding signal (z-score),Gal(b1-3)Gal,0.074
same,glycan array binding signal (z-score),Gal(b1-3)Gal(b1-4)GlcNAc,-0.413
same,glycan array binding signal (z-score),Gal(b1-3)GalNAc,-0.339
same,glycan array binding signal (z-score),[5],-0.236
same,glycan array binding signal (z-score),[6],0.223
same,glycan array binding signal (z-score),Gal(b1-3)GalNAc(b1-3)Gal,-0.05
same,glycan array binding signal (z-score),[7],0.291
same,glycan array binding signal (z-score),[8],0.593
same,glycan array binding signal (z-score),[9],-0.399
same,glycan array binding signal (z-score),Gal(b1-3)GlcNAc,-0.062
same,glycan array binding signal (z-score),[10],0.033
same,glycan array binding signal (z-score),[11],-0.036
same,glycan array binding signal (z-score),Gal(b1-3)GlcNAc(b1-2)Man,0.518
same,glycan array binding signal (z-score),[12],0.035
same,glycan array binding signal (z-score),[13],0.129
same,glycan array binding signal (z-score),[14],0.621
same,glycan array binding signal (z-score),[15],0.809
same,glycan array binding signal (z-score),[16],-0.37
same,glycan array binding signal (z-score),[17],-0.254
same,glycan array binding signal (z-score),[18],-0.013
same,glycan array binding signal (z-score),[19],0.439
same,glycan array binding signal (z-score),[20],0.405
same,glycan array binding signal (z-score),[21],0.06
same,glycan array binding signal (z-score),[22],0.034
same,glycan array binding signal (z-score),[23],0.293
same,glycan array binding signal (z-score),[24],-0.308
same,glycan array binding signal (z-score),[25],0.426
same,glycan array binding signal (z-score),[26],0.143
